The target in test [1] is T1, HIV-1 integrase (Human immunodeficiency virus type 1 group M subtype B, UniProt P04585). The experiment in a line: biochemical. The conditions noted are these: in vitro.
Test [2] has as its target T1, HIV-1 integrase. Briefly: biochemical. The conditions noted are these: IC50 3′-Processing, in vitro, 21-mer U5 LTR DNA, 30 minutes at 37° C.
Setting [3] is: IC50 Strand transfer, 21-mer U5 LTR DNA, 30 minutes at 37° C.

Values joined by “and” are separate entries in the source; they are usually repeats but may differ in a detail not shown here. Equal values may be shown once. Some results are limits rather than exact numbers.

With `COc1ccc(Cn2cc(C(=O)CC(=O)C(=O)O)c(=O)c3ccccc32)cc1` [RDS2035, 4-[1-(4-Methoxyphenyl)methyl-1,4-dihydro-4-oxoquinolin-3-yl]-2,4-dioxobutanoic acid], the values for the IC50 against HIV-1 integrase [1] (setting [3]) and against HIV-1 integrase [2] were 0.51 µM and 28 µM, respectively.

On to `O=C(O)C(=O)CC(=O)c1cn(Cc2ccccc2)c2ccccc2c1=O` [RDS1993, 4-(1-Phenylmethyl-1,4-dihydro-4-oxoquinolin-3-yl)-2,4-dioxobutanoic acid], for which the IC50 amounted to 0.034 µM at HIV-1 integrase [1] (setting [3]) and 4 µM at HIV-1 integrase [2].

Consider `CCOC(=O)C(=O)CC(=O)c1c[nH]c2ccc(Cl)cc2c1=O` [RDS1754], for which the IC50 against HIV-1 integrase [1] (setting [3]) and at HIV-1 integrase [2] was greater than 100 µM in each case.

For the molecule `O=C(O)C(=O)CC(=O)c1cn(Cc2ccc(F)cc2)c2cc(Cl)ccc2c1=O` [RDS1792], the half-maximal inhibitory concentration (IC50) was 0.11 µM and 0.021 µM against HIV-1 integrase [1] (setting [3]); 4 µM and 14 µM against HIV-1 integrase [2].

For the molecule `O=C(O)C(=O)CC(=O)c1cn(Cc2ccc3ccccc3n2)c2ccccc2c1=O` [RDS2000, 4-[1-(2-Quinolinyl)methyl-1,4-dihydro-4-oxoquinolin-3-yl]-2,4-dioxobutanoic acid], the IC50 was found to be 0.4 µM on HIV-1 integrase [1] (setting [3]) and 70 µM at HIV-1 integrase [2].

For the molecule `CCOC(=O)C(=O)CC(=O)c1cn(Cc2ccc(F)cc2)c2cc(F)ccc2c1=O` [RDS2021, 4-[1-(4-Fluorophenyl)methyl-7-fluoro-1,4-dihydro-4-oxoquinolin-3-yl]-2,4-dioxobutanoic acid ethyl ester], the 50% inhibitory concentration (IC50) against HIV-1 integrase [1] (setting [3]) came to 1.9 µM; against HIV-1 integrase [2], 25 µM.

On to `CCOC(=O)C(=O)CC(=O)c1cn(Cc2ccccc2F)c2ccccc2c1=O` [RDS1989, 4-[1-(2-Fluorophenyl)methyl-1,4-dihydro-4-oxoquinolin-3-yl]-2,4-dioxobutanoic acid ethyl ester], for which the values for the IC50 at HIV-1 integrase [1] (setting [3]) and at HIV-1 integrase [2] were 0.28 µM and 125 µM, respectively.

Consider `O=C(O)C(=O)CC(=O)c1c[nH]c2ccccc2c1=O` [RDS1680, 4-(1,4-dihydro-4-oxoquinolin-3-yl)-2,4-dioxobutanoic acid], for which the half-maximal inhibitory concentration (IC50) on HIV-1 integrase [1] (setting [3]) and at HIV-1 integrase [2] was greater than 100 µM throughout.

Turning to `CCOC(=O)C(=O)CC(=O)c1cn(Cc2ccc(F)cc2)c2ccccc2c1=O` [RDS1624, 4-[1-(4-fluorophenyl)methyl-1,4-dihydro-4-oxoquinolin-3-yl]-2,4-dioxobutanoic acid ethyl ester], the IC50 against HIV-1 integrase [1] (setting [3]) was 0.326 µM and 1.76 µM; at HIV-1 integrase [2], greater than 100 µM.

Consider `O=C(O)C(=O)CC(=O)c1cn(CCCCc2ccccc2)c2ccccc2c1=O` [RDS1981, 4-[1-(4-Phenylbutyl)-1,4-dihydro-4-oxoquinolin-3-yl]-2,4-dioxobutanoic acid], for which the IC50 against HIV-1 integrase [1] (setting [3]) was less than 0.45 µM; on HIV-1 integrase [2], greater than 333 µM.

As to `O=C(O)C(=O)CC(=O)c1cnc2cc(Cl)ccc2c1O` [RDS1794], the IC50 at HIV-1 integrase [1] (setting [3]) and against HIV-1 integrase [2] was greater than 100 µM each time.

For the molecule `O=C(O)C(=O)CC(=O)c1cn(Cc2ccc(F)cc2)c2ccc(F)cc2c1=O` [RDS2078, 4-[1-(4-Fluorophenyl)methyl-6-fluoro-1,4-dihydro-4-oxoquinolin-3-yl]-2,4-dioxobutanoic acid], the IC50 was determined as 0.047 µM on HIV-1 integrase [1] (setting [3]) and 2.9 µM at HIV-1 integrase [2].

In the case of `CCOC(=O)C(=O)CC(=O)c1cn(Cc2cccc(F)c2)c2ccccc2c1=O` [RDS1986, 4-[1-(3-Fluorophenyl)methyl-1,4-dihydro-4-oxoquinolin-3-yl]-2,4-dioxobutanoic acid ethyl ester], the results for the IC50 against HIV-1 integrase [1] (setting [3]) and against HIV-1 integrase [2] were 4.9 µM and greater than 12.3 µM, respectively.

For the molecule `CCOC(=O)C(=O)CC(=O)c1cn(CCCCc2ccccc2)c2ccccc2c1=O` [RDS1980, 4-[1-(4-Phenylbutyl)-1,4-dihydro-4-oxoquinolin-3-yl]-2,4-dioxobutanoic acid ethyl ester], the values for the concentration for half-maximal inhibition (IC50) against HIV-1 integrase [1] (setting [3]) and against HIV-1 integrase [2] were 120 µM and greater than 333 µM, respectively.

Take `CCOC(=O)C(=O)CC(=O)c1cn(Cc2ccc(OC)cc2)c2ccccc2c1=O` [RDS2034, 4-[1-(4-Methoxyphenyl)methyl-1,4-dihydro-4-oxoquinolin-3-yl]-2,4-dioxobutanoic acid ethyl ester]: the IC50 at HIV-1 integrase [1] (setting [3]) and at HIV-1 integrase [2] was greater than 37 µM in each case.

With `CCOC(=O)C(=O)CC(=O)c1cn(Cc2ccc(F)cc2)c2ccc(Cl)cc2c1=O` [RDS1755], the IC50 against HIV-1 integrase [1] (setting [3]) and against HIV-1 integrase [2] was greater than 100 µM each time.

With `CCOC(=O)C(=O)CC(=O)c1cn(Cc2ccc(Cl)cc2)c2ccccc2c1=O` [RDS2011, 4-[1-(4-Chlorophenyl)methyl-1,4-dihydro-4-oxoquinolin-3-yl]-2,4-dioxobutanoic acid ethyl ester], the IC50 at HIV-1 integrase [1] (setting [3]) and at HIV-1 integrase [2] was greater than 37 µM each time.

For the molecule `CCOC(=O)C(=O)CC(=O)c1cn(Cc2ccc3ccccc3c2)c2ccccc2c1=O` [RDS1974, 4-[α-(2-Naphthyl)methyl-1,4-dihydro-4-oxoquinolin-3-yl]-2,4-dioxobutanoic acid ethyl ester], the IC50 was 32 µM at HIV-1 integrase [1] (setting [3]) and greater than 333 µM against HIV-1 integrase [2].

Take `CCOC(=O)C(=O)CC(=O)c1cn(Cc2ccc3ccccc3n2)c2ccccc2c1=O` [RDS1999, 4-[1-(2-Quinolinyl)methyl-1,4-dihydro-4-oxoquinolin-3-yl]-2,4-dioxobutanoic acid ethyl ester]: the IC50 is 3.5 µM at HIV-1 integrase [1] (setting [3]) and greater than 1000 µM against HIV-1 integrase [2].

With `CCOC(=O)C(=O)CC(=O)c1c[nH]c2ccccc2c1=O` [RDS1675, 4-(1,4-dihydro-4-oxoquinolin-3-yl)-2,4-dioxobutanoic acid ethyl ester], the IC50 on HIV-1 integrase [1] (setting [3]) and at HIV-1 integrase [2] was greater than 100 µM throughout.

Take `CCOC(=O)C(=O)CC(=O)c1cn(Cc2c(F)cccc2F)c2ccccc2c1=O` [RDS1983, 4-[1-(2,6-Difluorophenyl)methyl-1,4-dihydro-4-oxoquinolin-3-yl]-2,4-dioxobutanoic acid ethyl ester]: the IC50 at HIV-1 integrase [1] (setting [3]) was 0.25 µM; at HIV-1 integrase [2] it was greater than 12.3 µM.

As to `CCOC(=O)C(=O)CC(=O)c1cn(Cc2ccc([N+](=O)[O-])cc2)c2ccccc2c1=O` [RDS2017, 4-[1-(4-Nitrophenyl)methyl-1,4-dihydro-4-oxoquinolin-3-yl]-2,4-dioxobutanoic acid ethyl ester], the IC50 on HIV-1 integrase [1] (setting [3]) and at HIV-1 integrase [2] was greater than 37 µM each time.

`CCOC(=O)C(=O)CC(=O)c1cn(Cc2ccccc2)c2ccccc2c1=O` [RDS1992, 4-(1-Phenylmethyl-1,4-dihydro-4-oxoquinolin-3-yl)-2,4-dioxobutanoic acid ethyl ester]: the results for the IC50 at HIV-1 integrase [1] (setting [3]) and against HIV-1 integrase [2] were 0.7 µM and greater than 1000 µM, respectively.

For the molecule `O=C(O)C(=O)CC(=O)c1c[nH]c2ccc(Cl)cc2c1=O` [RDS1786], the IC50 against HIV-1 integrase [1] (setting [3]) and against HIV-1 integrase [2] was greater than 100 µM throughout.

Consider `CCOC(=O)C(=O)CC(=O)c1c[nH]c2cc(Cl)ccc2c1=O` [RDS1793], for which the half-maximal inhibitory concentration (IC50) on HIV-1 integrase [1] (setting [3]) and against HIV-1 integrase [2] was greater than 1000 µM in each case.

Take `O=C(O)C(=O)CC(=O)c1cn(Cc2ccccc2F)c2ccccc2c1=O` [RDS1990, 4-[1-(2-Fluorophenyl)methyl-1,4-dihydro-4-oxoquinolin-3-yl]-2,4-dioxobutanoic acid]: the results for the IC50 against HIV-1 integrase [1] (setting [3]) and on HIV-1 integrase [2] were 0.016 µM and 1.2 µM, respectively.

Take `O=C(O)C(=O)CC(=O)c1cn(Cc2ccc(F)cc2)c2cc(F)ccc2c1=O` [RDS2022, 4-[1-(4-Fluorophenyl)methyl-7-fluoro-1,4-dihydro-4-oxoquinolin-3-yl]-2,4-dioxobutanoic acid]: the figures for the IC50 against HIV-1 integrase [1] (setting [3]) and on HIV-1 integrase [2] were 0.042 µM and 1.9 µM, respectively.

`CCOC(=O)C(=O)CC(=O)c1cn(Cc2ccc(F)cc2)c2ccc(F)cc2c1=O` [RDS2077, 4-[1-(4-Fluorophenyl)methyl-6-fluoro-1,4-dihydro-4-oxoquinolin-3-yl]-2,4-dioxobutanoic acid ethyl ester]: the 50% inhibitory concentration (IC50) on HIV-1 integrase [1] (setting [3]) was 0.49 µM; against HIV-1 integrase [2] it was greater than 37 µM.

For the molecule `O=C(O)C(=O)CC(=O)c1cn(Cc2ccc3ccccc3c2)c2ccccc2c1=O` [RDS1975, 4-[1-(2-Naphthyl)methyl-1,4-dihydro-4-oxoquinolin-3-yl]-2,4-dioxobutanoic acid], the IC50 is less than 0.45 µM at HIV-1 integrase [1] (setting [3]) and 18 µM at HIV-1 integrase [2].

On to `CCOC(=O)C(=O)CC(=O)c1cn(Cc2ccc(F)cc2)c2cc(Cl)ccc2c1=O` [RDS1788], for which the IC50 on HIV-1 integrase [1] (setting [3]) and on HIV-1 integrase [2] was greater than 100 µM each time.

For the molecule `O=C(O)C(=O)CC(=O)c1cn(Cc2ccc(F)cc2)c2ccc(Cl)cc2c1=O` [RDS1787], the concentration for half-maximal inhibition (IC50) was 0.124 µM and 0.403 µM at HIV-1 integrase [1] (setting [3]); 28.7 µM and 6.4 µM on HIV-1 integrase [2].

For the molecule `O=C(O)C(=O)CC(=O)c1cn(Cc2ccc([N+](=O)[O-])cc2)c2ccccc2c1=O` [RDS2018, 4-[1-(4-Nitrophenyl)methyl-1,4-dihydro-4-oxoquinolin-3-yl]-2,4-dioxobutanoic acid], the results for the half-inhibitory concentration (IC50) against HIV-1 integrase [1] (setting [3]) and against HIV-1 integrase [2] were 0.64 µM and 27 µM, respectively.

On to `O=C(O)C(=O)CC(=O)c1cn(Cc2ccc(F)cc2)c2ccccc2c1=O` [RDS1625, 4-[1-(4-fluorophenyl)methyl-1,4-dihydro-4-oxoquinolin-3-yl]-2,4-dioxobutanoic acid], for which the IC50 was 0.0313 µM and 0.047 µM on HIV-1 integrase [1] (setting [3]); roughly 0.05 µM at HIV-1 integrase [1] (IC50 value for strand transfer); 2.2 µM and 1.8 µM against HIV-1 integrase [2].

In the case of `O=C(O)C(=O)CC(=O)c1cn(Cc2ccc(Cl)cc2)c2ccccc2c1=O` [RDS2012, 4-[1-(4-Chlorophenyl)methyl-1,4-dihydro-4-oxoquinolin-3-yl]-2,4-dioxobutanoic acid], the IC50 at HIV-1 integrase [1] (setting [3]) amounted to 0.54 µM; at HIV-1 integrase [2], 22 µM.

For the molecule `O=C(O)C(=O)CC(=O)c1cn(Cc2c(F)cccc2F)c2ccccc2c1=O` [RDS1984, 4-[1-(2,6-Difluorophenyl)methyl-1,4-dihydro-4-oxoquinolin-3-yl]-2,4-dioxobutanoic acid], the IC50 is 0.019 µM against HIV-1 integrase [1] (setting [3]) and 0.7 µM against HIV-1 integrase [2].

Consider `O=C(O)C(=O)CC(=O)c1cn(Cc2cccc(F)c2)c2ccccc2c1=O` [RDS1987, 4-[1-(3-Fluorophenyl)methyl-1,4-dihydro-4-oxoquinolin-3-yl]-2,4-dioxobutanoic acid], for which the IC50 against HIV-1 integrase [1] (setting [3]) stood at 0.015 µM; against HIV-1 integrase [2], 4.6 µM.

One may read the IC50 as the concentration needed to halve the response being measured. A lower IC50 goes with inhibition by little substance.

The record behind these values is patent US7776883B2, “Quinolin-4-ones as inhibitors of retroviral integrase for the treatment of HIV, AIDS and AIDS related complex (ARC)” (The United States of America as represented by the …, priority 2004, dated 2010).
